This is one part of the list.
These molecules were tested on S. aureus RN4220 (assay: growth inhibition call (relative growth <= 0.2)). Conditions: 50 µM.

Growth inhibition call, active:
CC1(C)SC2C(N3C(=O)C(c4ccccc4)NC3(C)C)C(=O)N2C1C(=O)[O-].[K+] (centres undefined)

Growth inhibition call, inactive:
C[C@@H]1CN([C@H](C)CO)C(=O)CCCn2nncc2CO[C@@H]1CN(C)C(=O)Nc1ccc2c(c1)OCO2
NCc1nc2c([nH]1)CCCC2
C[C@@H]1CCCCO[C@@H](CN(C)S(C)(=O)=O)[C@@H](C)CN([C@@H](C)CO)C(=O)c2cc(NS(=O)(=O)c3ccc(F)cc3)ccc2O1
COc1ccc(S(=O)(=O)N(C)C[C@H]2Oc3ncc(C#CC4(O)CCCC4)cc3C(=O)N([C@H](C)CO)C[C@H]2C)cc1
CN1CCN(C(=O)C[C@@H]2CC[C@H]3[C@@H](COC[C@@H](O)CN3C(=O)Nc3ccc4c(c3)OCO4)O2)CC1
C[C@@H]1CN([C@H](C)CO)C(=O)c2cc(NS(C)(=O)=O)ccc2O[C@H]1CN(C)S(=O)(=O)c1ccc(F)cc1
C[C@H]1CN([C@@H](C)CO)C(=O)c2cccc(NC(=O)Nc3ccc(C(F)(F)F)cc3)c2O[C@H]1CN(C)S(C)(=O)=O
COc1ccc(NC(=O)N(C)C[C@H]2Oc3c(NS(=O)(=O)c4c(C)noc4C)cccc3C(=O)N([C@H](C)CO)C[C@H]2C)cc1
COC(=O)C1=CO[C@@H](O[C@H]2O[C@@H](CO)[C@@H](O)[C@@H](O)[C@@H]2O)[C@@H]2C(CO)=C[C@H](O)[C@H]12
C[C@H]1CCCCO[C@@H](CN(C)C(=O)CCC(F)(F)F)[C@@H](C)CN([C@@H](C)CO)C(=O)c2cc(NS(=O)(=O)c3ccc(F)cc3)ccc2O1
C[C@H](CO)N1C[C@H](C)[C@@H](CN(C)C(=O)Nc2cccc3ccccc23)Oc2ccc(NC(=O)Cc3cn(C)c4ccccc34)cc2C1=O
O=C(Nc1cccc2cccnc12)[C@@H]1[C@H](c2ccc(C(F)(F)F)cc2)CC(=O)N1C(=O)OCc1ccccc1
CCO[C@H]1OC(C(=O)N2CCN(Cc3ccccc3)CC2)=C[C@@H](C)[C@@H]1CCCOC(=O)NCCCCCC(=O)NO
COCC(=O)N1CC[C@]2(CC1)CN([C@@H](CO)c1c2c2ccc(cc2n1C)OC)C(=O)Cc1ccccc1
COCCOC(=O)N1C(=O)[C@@]2(c3cc(C#Cc4ccc(OC)cc4)ccc31)[C@H](C(=O)N1CCN(c3ncccn3)CC1)[C@H]1C(=O)O[C@H](c3ccccc3)[C@H](c3ccccc3)N1[C@@H]2c1ccc(OCCO)cc1
C[C@H](CO)N1C[C@H](C)[C@@H](CN(C)Cc2ccc(C(F)(F)F)cc2)OCCCC[C@H](C)Oc2ccc(NC(=O)Nc3ccc4c(c3)OCO4)cc2C1=O
C[C@@H]1COC(=O)[C@H](CC(=O)OC(C)(C)C)CC=CC[C@@H](CC(=O)N[C@@H](CO)Cc2ccccc2)C(=O)N1
O=C(C[C@H]1CC[C@H]2[C@@H](COC[C@@H](O)CN2S(=O)(=O)c2ccccc2)O1)N[C@H]1CCN(Cc2ccccc2)C1
COc1ccc2c3c(n(c2c1)C)[C@H](CO)N(C[C@]13CCN(CC1)C(=O)CN(C)C)S(=O)(=O)C
COc1ccccc1C#Cc1ccc2c(c1)O[C@@H](CN(C)C(C)=O)[C@H](C)CN([C@H](C)CO)S2(=O)=O
CCOC(=O)c1ccc(NC(=S)N[C@@H](NC(=O)c2ccc(Br)cc2)C(Cl)(Cl)Cl)cc1
COc1ccc(S(=O)(=O)N2C[C@@H](O)COC[C@@H]3O[C@H](CC(=O)N[C@@H]4CCN(Cc5ccccc5)C4)CC[C@H]32)cc1
C[C@H](CO)N1C[C@H](C)[C@H](CN(C)C(=O)Nc2ccc(F)cc2)OCCCC[C@H](C)Oc2ccc(NC(=O)C3CCOCC3)cc2C1=O
C=CC[C@H](CC(=O)NCCO)C(=O)N[C@H](COC(=O)[C@H](CC=C)CC(=O)OC(C)(C)C)c1ccccc1
C[C@H](CO)N1C[C@H](C)[C@@H](CN(C)Cc2ccc(C(=O)O)cc2)Oc2ccc(NC(=O)C3CC3)cc2C1=O
Cc1noc(C)c1S(=O)(=O)Nc1cccc2c1O[C@H](CN(C)C(=O)NC(C)C)[C@H](C)CN([C@@H](C)CO)C2=O
C[C@H]1CN([C@@H](C)CO)C(=O)c2cccc(NS(=O)(=O)c3cccs3)c2O[C@@H]1CN(C)Cc1ccc(Cl)c(Cl)c1
C[C@@H]1CN([C@H](C)CO)C(=O)c2cc(NC(=O)C3CCCCC3)ccc2O[C@@H]1CN(C)Cc1ccc(Oc2ccccc2)cc1
CN(CC(=O)Nc1ccccc1)S(C)(=O)=O
O=c1c(O[C@@H]2O[C@H](CO)[C@@H](O)[C@H](O)[C@@H]2O[C@H]2OC[C@](O)(CO)[C@H]2O)c(-c2ccc(O)c(O)c2)oc2cc(O)cc(O)c12
COc1ccc(CNC(=O)C[C@@H]2C[C@@H]3c4cc(NS(=O)(=O)c5ccc(F)cc5)ccc4O[C@@H]3[C@@H](CO)O2)cc1
O=C(C=Cc1ccc(O)cc1)c1ccc(O)cc1O
COc1cccc(NC(=O)N2C[C@@H](O)COC[C@H]3O[C@@H](CC(=O)NCCCN4CCOCC4)CC[C@@H]32)c1
COc1ccc(S(=O)(=O)N(C)C[C@H]2Oc3ccc(NS(=O)(=O)c4ccccc4)cc3C(=O)N([C@@H](C)CO)C[C@@H]2C)cc1
C[C@@H]1CN([C@@H](C)CO)C(=O)c2cc(NC(=O)Nc3ccc(C(F)(F)F)cc3)ccc2O[C@H]1CN(C)Cc1ccc(Cl)c(Cl)c1
C[C@H](CO)N1C[C@H](C)[C@@H](CN(C)C(=O)Nc2cccc3ccccc23)OCCCC[C@H](C)Oc2ccc(NS(=O)(=O)c3cn(C)cn3)cc2C1=O
C[C@H]1CN([C@@H](C)CO)C(=O)Cc2cc(NC(=O)Nc3cccc4ccccc34)ccc2O[C@@H]1CN(C)Cc1ccc(Cl)c(Cl)c1
C[C@H]1CN([C@@H](C)CO)C(=O)Cc2cc(NC(=O)Nc3cccc4ccccc34)ccc2O[C@H]1CN(C)Cc1ccncc1

Source: the antibiotic and cytotoxicity screens of Wong et al. (2023)
